This is one part of the list.
molecular target: no compound (DMSO); assay: log2 fold change of degron read counts, EGFP-low vs EGFP+ sorted cells; higher = lower degron-EGFP level without compound (poor expression or instability); settings: compound: DMSO control; 18 h
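Note: jurkat cells carrying a lentiviral library of mutant zinc finger degrons fused to EGFP plus mCherry, mCherry+ cells FACS sorted, degron abundance counted by next-generation sequencing.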

Sequence	log2 fold change of degron read counts
FDCNICGARFTQKGNLLRHIKL	-0.663
FACDQCGAMFTQKGNLLRHIKL	-1.19
FRCDQCGAKFTQKGNLLRHIKL	-1.35
FSCDQCGAGFTQKGNLLRHIKL	-1.4
FECEICGRYFTQKGNLLRHIKL	-1.09
FWCDVCGADFTQKGNLLRHIKL	-1.68
FFCEICGATFTQKGNLLRHIKL	-1.95
FICEVCGAKFTQKGNLLRHIKL	-2.05
FTCPICGAWFTQKGNLLRHIKL	0.892
FVCEICGHNFTQKGNLLRHIKL	-1.9
FWCNQCGRSFTQKGNLLRHIKL	0.562
LRCNQCGFCCTQKGNLLRHIKL	0.532
FRCNQCGRSFTQKGNLLRHIKL	-0.469
FGCPICGAEFTQKGNLLRHIKL	-0.25
FTCEICGALFTQKGNLLRHIKL	-0.585
FACNQCGAYFTQKGNLLRHIKL	0.275
FRCPVCGARFTQKGNLLRHIKL	-0.212
FYCEICGRYFTQKGNLLRHIKL	0.0422
FCCEICGAAFTQKGNLLRHIKL	-0.98
LQCNQCGFHCTQKGNLLRHIKL	0.312
FNCSVCGHVFTQKGNLLRHIKL	0.299
FMCDQCGALFTQKGNLLRHIKL	-1.12
FHCEVCGAPFTQKGNLLRHIKL	-1.24
FRCEICGAAFTQKGNLLRHIKL	-2.27
FCCDICGATFTQKGNLLRHIKL	-1.95

Sequence	log2 fold change of degron read counts
LQCPICGFICTQKGNLLRHIKL	0.978
FFCSVCGHYFTQKGNLLRHIKL	0.823
FVCPICGAQFTQKGNLLRHIKL	-0.902
FVCNQCGAMFTQKGNLLRHIKL	-0.311
FDCEICGRHFTQKGNLLRHIKL	-1.4
FLCEVCGAFFTQKGNLLRHIKL	-0.944
FTCDVCGARFTQKGNLLRHIKL	-1.64
FMCEICGHSFTQKGNLLRHIKL	-2.7
FQCDQCGAWFTQKGNLLRHIKL	-0.484
FRCNQCGHHFTQKGNLLRHIKL	-0.139
FMCDQCGASFTQKGNLLRHIKL	-1.46
FLCPVCGACFTQKGNLLRHIKL	0.119
FTCNQCGHEFTQKGNLLRHIKL	-1.12
FRCPICGAGFTQKGNLLRHIKL	0.379
FYCDICGARFTQKGNLLRHIKL	-0.687
FACPQCGALFTQKGNLLRHIKL	-0.456
FCCNQCGACFTQKGNLLRHIKL	-0.511
FDCPQCGAEFTQKGNLLRHIKL	-1.91
FMCDQCGAPFTQKGNLLRHIKL	-1.14
FCCNQCGRWFTQKGNLLRHIKL	0.571
FICPICGHNFTQKGNLLRHIKL	-0.328
FVCDQCGAYFTQKGNLLRHIKL	-1.25
FTCPICGAEFTQKGNLLRHIKL	-0.473
FHCPICGAMFTQKGNLLRHIKL	-0.0657
FWCPICGASFTQKGNLLRHIKL	0.575

Source: the supplement of paper PMC12645437, “Orthogonal IMiD-Degron Pairs Induce Selective Protein Degradation in Cells” (ACS Chemical Biology, 2025)
